We go through 85 molecules from ChEMBL document CHEMBL4888484, “Replenishing the malaria drug discovery pipeline: Screening and hit evaluation of the MMV Hit Generation Library 1 (HGL1) against asexual blood stage Plasmodium falciparum ,using a nano luciferase reporter read-out” (2022).

The structures appear in SMILES notation. The whole screen tested about 150,000 compounds, of which about 540 (0.36%) showed an effect of 50% or more. The list shows a part of the results.

The test relates to Plasmodium falciparum. The experiment in a line: Primary screen in NF54 nanoGlo assay, in single point, at 2uM, 72h; a lower Z score goes with more inhibition. Format: functional, Erythrocyte. The settings on record: timepoint 72 hour.
As a reminder, the % Inhibition is the change of the read-out against control, counted positive when it falls. In the case of `O=C(Nc1cccc(C(F)(F)F)c1)c1cc(O)n(-c2ccc(Cl)cc2)c(=O)n1`, the “% Inhibition” value came out at 6% and the Z score was -0.75.
Taken in the same sequence, the figures for `Cc1ccc(CN2CC(N3CCCCC3)C2)s1` were -3% and 0.35.
Taken in the same sequence, the figures for `Cc1c(NCc2cccnc2)cccc1C(=O)N1CCN(C)C(=O)[C@@H]1C` were -17% and 1.87.
Taken in the same sequence, the figures for `Cc1cc(C)nc(OCC2(O)CCN(C(=O)CC(C)C)CC2)n1` were -4% and 0.76.
Take `c1coc(-c2nnc3c4ccccc4nc(N4CCN(Cc5ccc6c(c5)OCO6)CC4)n23)c1`: the “% Inhibition” value was 5% and the Z score is recorded as -0.63.
Taken in the same sequence, the figures for `Fc1cc2ncnc(Oc3ccc(-n4cncn4)cc3)c2cc1Br` were -16% and 1.85.
Taken in the same sequence, the figures for `CC(C)Cc1cc(-c2cn(C[C@H]3CNCCO3)nn2)n[nH]1` were -19% and 1.83.
Taken in the same sequence, the figures for `CC1(C)CN(C[C@H](O)c2ccccc2Cl)CCN1C[C@H](O)c1ccccc1Cl` were 6% and -0.56.
For `OC1CCN(c2ccnc(N3C[C@@H]4[C@@H]5CC[C@@H](C5)[C@@H]4C3)n2)C1` (stereo not given in full), the “% Inhibition” value is listed as -4% and the Z score stood at 0.59.
Taken in the same sequence, the figures for `O=C1CCc2cc(S(=O)(=O)Oc3ccc(F)cc3Cl)ccc2N1` were 4% and -0.79.
Taken in the same sequence, the figures for `CCn1cc(C2OCCC2CNCc2ccc3c(c2)CCO3)cn1` (stereo not given) were -3% and 0.27.
Regarding `Cc1cc(C(=O)N(C)C[C@H](C)c2nnn[nH]2)c2c(C(C)C)noc2n1`, the “% Inhibition” value was -1% and the Z score came to 0.12.
Taken in the same sequence, the figures for `CN(Cc1ccc2nccnc2c1)C(=O)c1ccc(CCC(C)(C)O)cc1` were -6% and 0.82.
For `COc1nc(C)cc(C)c1CN1C[C@@](C)(Cc2ccc3c(c2)OCO3)CCC1=O`, the “% Inhibition” value is recorded as 0% and the Z score is -0.03.
Taken in the same sequence, the figures for `Cc1ccccc1NC(=O)N1CCN(c2nc(-c3ccc(C(F)(F)F)cc3)nc(C)c2C(C)C)CC1` were 0% and 0.
Taken in the same sequence, the figures for `Cc1nc(N2CCC[C@H]2c2nc3ccccc3s2)c2cnn(C(C)(C)C)c2n1` were -4% and 0.56.
Taken in the same sequence, the figures for `CC1CC(C)CN(C(=O)c2ccc(=O)n(C)c2)C1` (stereo not given) were -3% and 0.46.
Consider `Cc1nn(-c2ccc(F)cc2)c2nc(C3CC3)nc(N3CCN(C(=O)c4ccccc4Cl)CC3)c12`, for which the “% Inhibition” value is reported as -15% and the Z score was 1.56.
Regarding `O=S(=O)(NC[C@H]1CCCNC1)c1c(Cl)cc(F)cc1Br`, the “% Inhibition” value is given as -25% and the Z score is 3.3.
Taken in the same sequence, the figures for `c1ccc(-n2ccnc2[C@H]2OCC[C@@H]2Nc2nccs2)cc1` were 2% and -0.29.
Taken in the same sequence, the figures for `CCOc1cccc(CN[C@H]2COCc3ccccc32)n1` were -24% and 2.22.
For `Cc1cnc(CNC2(c3ccc(Cl)cc3)CCCC2)cn1`, the “% Inhibition” value is reported as -6% and the Z score is given as 1.22.
With `C[C@H](ON=C(N)Cn1cccn1)C(=O)Nc1cccc(Br)c1`, the “% Inhibition” value is on record as 5% and the Z score is on record as -0.83.
Taken in the same sequence, the figures for `CNc1ncccc1C(=O)N1C[C@@H]2NC(=O)c3ccc(OC)c(c3)OCCn3cc(nn3)CO[C@H]2C1` were -14% and 1.8.
Take `COc1ccccc1NC[C@H]1CCC=CO1`: the “% Inhibition” value was -5% and the Z score stood at 0.73.
Taken in the same sequence, the figures for `Cc1nc(NCCc2noc(CO)n2)c2c(C)noc2n1` were -15% and 2.5.
Taken in the same sequence, the figures for `Cc1nn(C)c2nc(-c3ccncc3)nc(N(C)CCN3CCCCCC3)c12` were 3% and -0.6.
Turning to `CCOc1ncccc1C(=O)NC1CCN(c2nc(C)nc3c2CCCC3)CC1`, the “% Inhibition” value is -3% and the Z score is listed as 0.6.
Taken in the same sequence, the figures for `CCC(Oc1ccc2c(c1)C(c1ccc(F)cc1)N(C(=O)C1CCCC1)CC2)C(=O)N(C)Cc1ccccc1` (stereo not given) were -16% and 2.17.
Taken in the same sequence, the figures for `O=C(CCNS(=O)(=O)c1ccc(Cl)cc1)N[C@H]1CCS(=O)(=O)C1` were 7% and -1.25.
Regarding `COc1cccc(Cn2ncnc2-c2cc(C)nc(C)n2)c1`, the “% Inhibition” value is listed as -14% and the Z score is on record as 1.87.
Taken in the same sequence, the figures for `COc1ccc2c(c1)-c1nc(-n3ncc(C(=O)O)c3C)ncc1CC2` were -11% and 1.98.
Taken in the same sequence, the figures for `Cc1nc(C)c(S(=O)(=O)Nc2cc(Br)ccc2S(C)(=O)=O)s1` were 8% and -0.97.
Taken in the same sequence, the figures for `O[C@H]1CC[C@@H](c2nc(-c3cccc(F)c3)n[nH]2)CC1` were -7% and 1.11.
Regarding `Cc1cc(C(=O)N[C@H]2CC[C@H](Oc3cnccn3)CC2)c(C)o1`, the “% Inhibition” value was -10% and the Z score stood at 1.19.
Taken in the same sequence, the figures for `C[C@@H](C(=O)N1CCN(c2ccc3nccn3n2)CC1)n1ccnc1` were -3% and 0.34.
Turning to `O=C(COc1ccc(-c2ccccc2)cc1)Nc1ccc(-n2cnnn2)cc1`, the “% Inhibition” value is -5% and the Z score was determined as 0.64.
Taken in the same sequence, the figures for `COc1ccnc(N2CC[C@H](S(=O)(=O)N3CCCC3)C2)n1` were -11% and 1.72.
Taken in the same sequence, the figures for `Cc1nn(-c2ccccc2)c2nc(C3CC3)nc(N3CCN(S(=O)(=O)c4ccc(Cl)cc4)CC3)c12` were -6% and 1.
`O=S(=O)(c1ccc2c(c1)CCCC2)N1CCCN(C2CCC2)CC1`: the “% Inhibition” value is reported as -18% and the Z score came to 3.12.
Taken in the same sequence, the figures for `Fc1ccc(-c2nc(CN(Cc3ccccn3)C3CC3)co2)cc1` were -17% and 2.37.
Taken in the same sequence, the figures for `CO[C@H]1CCOC[C@@H]1NC(=O)NCc1noc2cc(F)ccc12` were -11% and 1.39.
Taken in the same sequence, the figures for `CCn1cccc(CNC(=O)[C@@H]2COCCN2CC2CCC2)c1=O` were 7% and -1.3.
Consider `Cc1cc(CN(C)C[C@@H]2C[C@H](F)CN2Cc2nccn2C)ccn1`, for which the “% Inhibition” value is -14% and the Z score came out at 1.78.
Take `Cc1cncnc1C1CCN(C(=O)CCOc2ccccc2)CC1`: the “% Inhibition” value is -9% and the Z score was 1.46.
Consider `Cc1nn(C(=O)C2CCCCC2)c(C)c1CNC(=O)C1CCCCC1`, for which the “% Inhibition” value is recorded as -2% and the Z score was found to be 0.32.
Taken in the same sequence, the figures for `c1ccc2cc(-c3ncc(CN4CCC4)cn3)ccc2c1` were -9% and 1.19.
As for `CO[C@H]1CN(c2cc(Cl)ccc2C#N)C[C@@H]1O`, the “% Inhibition” value is on record as 14% and the Z score is reported as -1.77.
Taken in the same sequence, the figures for `Cc1noc(C)c1S(=O)(=O)N(C)Cc1nc2ccccc2c(=O)[nH]1` were -9% and 1.15.
Taken in the same sequence, the figures for `CN(Cc1cn(C)nn1)C(=O)Nc1ccc(CS(=O)(=O)C(C)(C)C)cc1` were -4% and 0.61.
Taken in the same sequence, the figures for `CN1C[C@H](NC(=O)c2cc(C3CC3)n[nH]2)c2sccc2S1(=O)=O` were -4% and 0.77.
`CCn1cnnc1CC1CCN(C(=O)CCn2c3c(c4ccccc42)CCCC3)CC1`: the “% Inhibition” value was determined as 0% and the Z score is 0.02.
On to `O=C(c1ccc(Cl)cc1)[C@H]1CCCN(C2CCN(Cc3ccccc3)CC2)C1`, for which the “% Inhibition” value is given as -18% and the Z score is on record as 1.9.
`N#Cc1cc2n(n1)CCCN(C(=O)C[C@H]1CCOC1)C2`: the “% Inhibition” value is given as -6% and the Z score amounted to 1.14.
For `CC(C)N1CC[C@H](CN(C)C(=O)Cc2ccc(F)cc2Cl)C1`, the “% Inhibition” value is given as -6% and the Z score came out at 1.18.
For `Cc1nc(CO[C@H]2CCN(c3ccnc4c(Cl)cccc34)C2)cs1`, the “% Inhibition” value is -39% and the Z score is on record as 4.52.
Taken in the same sequence, the figures for `CC(C(=O)NCC1CCCOC1)N(C(=O)OC(C)(C)C)C1CC1` (stereo not given) were 19% and -2.37.
Taken in the same sequence, the figures for `CNc1ncccc1CN1CCCn2nc([C@@H](O)CO)cc2C1` were -24% and 2.08.
As to `Cn1nc(-c2nccn2CCc2n[nH]c(=O)[nH]2)c2c(Cl)cccc21`, the “% Inhibition” value is -19% and the Z score is reported as 2.59.
Taken in the same sequence, the figures for `O=C(O)CC(C(=O)NC1CCCCC1)C1CCCO1` (stereo not given) were -12% and 1.54.
Turning to `NC(=O)[C@H]1CCCN(CCn2cc(-c3ccc(F)c(Cl)c3)nn2)C1`, the “% Inhibition” value is on record as 9% and the Z score is -1.
With `C[C@H]1Cc2ccccc2N1C(=O)c1cocn1`, the “% Inhibition” value was determined as 9% and the Z score is listed as -1.03.
As to `COCCN(CC(=O)N(Cc1ccccc1)Cc1ccc(C)o1)C(C)=O`, the “% Inhibition” value is -20% and the Z score was determined as 1.85.
Take `C[C@@H]1C[C@H](O)CN(C(=O)c2ccc3nccn3c2)C1`: the “% Inhibition” value is listed as -4% and the Z score stood at 0.52.
Taken in the same sequence, the figures for `Cc1cc(C#N)cc(NC(=O)CN(C)S(C)(=O)=O)n1` were -3% and 0.51.
Taken in the same sequence, the figures for `CC(C)(C)NC(=O)N1CC(Oc2nccs2)C1` were -16% and 2.07.
In the case of `O=C(NCc1cn(-c2cccnc2)nn1)N1CCOCC1`, the “% Inhibition” value was -2% and the Z score turned out to be 0.24.
Taken in the same sequence, the figures for `CCc1ccccc1NC(=O)CN1C(=O)[C@H]2CCCC2=Nc2cc(C)c(C)cc21` were 0% and -0.02.
Regarding `CCn1c(C2CCNCC2)nn(CCOc2ccc(C)cc2C)c1=O`, the “% Inhibition” value is recorded as -6% and the Z score was 0.57.
On to `C[C@H]1COC2(CCC2)CN1C(=O)NCCc1ccoc1`, for which the “% Inhibition” value was determined as 0% and the Z score stood at 0.01.
Turning to `C[C@H](CN)NCc1ccc(F)cc1Br`, the “% Inhibition” value is -9% and the Z score was 1.23.
With `CCNC(=O)NC(=O)[C@H](C)N1CCC(Nc2cccc(C)n2)CC1`, the “% Inhibition” value is on record as -6% and the Z score is reported as 1.22.
Turning to `CCOC(=O)c1nnc(C(=O)OCC)[nH]1`, the “% Inhibition” value is on record as -32% and the Z score was 3.78.
Taken in the same sequence, the figures for `C=CCC(CC)NC(=O)NC(CC)C1CCCO1` (stereo not given) were 10% and -1.85.
For `O=S(=O)(NCC1(C2CC2)CCC1)c1cnn(CC(F)(F)F)c1`, the “% Inhibition” value worked out at 2% and the Z score is -0.25.
Taken in the same sequence, the figures for `O=C(Nc1ccccc1)OC1C2CCCC1C(N1CCCCC1)CC2` (stereo not given) were -10% and 0.87.
As to `Cc1ccccc1CN1CCCN(C(=O)c2ccncc2Cl)CC1`, the “% Inhibition” value is listed as -12% and the Z score worked out at 1.07.
For `CCOC(=O)C[C@H]1COCCN1C(=O)c1coc(CN2CCc3ccccc3C2)n1`, the “% Inhibition” value is reported as -11% and the Z score came out at 1.68.
As to `CCn1nncc1C(=O)N[C@H](C)C1CCCC1`, the “% Inhibition” value is listed as 1% and the Z score is reported as -0.14.
Turning to `CC1(C)NC(=O)N(Cc2noc(CCC(=O)NC3CCCC3)n2)C1=O`, the “% Inhibition” value is -12% and the Z score is given as 1.58.
Regarding `CCC(CC)C(=O)c1c[nH]c(C(N)=O)c1`, the “% Inhibition” value stood at 34% and the Z score is -4.39.
On to `OCCCN(Cc1cccnc1)Cc1cn2cc(Cl)ccc2n1`, for which the “% Inhibition” value is -8% and the Z score is 0.85.
Consider `COc1ccc(-c2noc(N(C)CC(=O)Nc3ccc(OC)c(OC)c3)n2)cc1`, for which the “% Inhibition” value is -3% and the Z score is listed as 0.56.
Turning to `COCC1(NCC(=O)NCc2ccc(C)s2)CCOCC1`, the “% Inhibition” value was -2% and the Z score was determined as 0.22.
Taken in the same sequence, the figures for `CC(C)c1c(C(=O)N2CC[C@H](N(C)C)C2)cnn1-c1nccc(-c2ccccc2F)n1` were -3% and 0.41.
